In the supplement of paper PMC10441789:
This is one part of the list. Antibody binding of pooled human sera (four to six donors per pool; dilution not stated) to peptides of the Trypanosoma cruzi antigen TSSA on microarrays. Quantile-normalised fluorescence in arbitrary units, mean of duplicate arrays; higher = more binding. No active / inactive call. The uninfected pools are read here as the healthy donors of the same country. The strongest signals lie near the top of the scale (about 60,000).

Experiments:
Assay in all cases: antibody binding signal (normalised fluorescence) (arbitrary fluorescence units); higher = stronger serum antibody binding to peptide
[1] = tested on: pooled sera of chronic Chagas disease patients, Bolivia
Description: (§1)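 Microarray of 15-residue peptides over residues 30-55 of Trypanosoma cruzi TSSAII, each with 1 to 10 substitutions at naturally variable positions, probed with one serum pool per country.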

[2] = tested on: pooled sera of chronic Chagas disease patients, Brazil
Description: as §1

[3] = tested on: pooled sera of chronic Chagas disease patients, Colombia
Description: as §1

[4] = tested on: pooled sera of chronic Chagas disease patients, Mexico
Description: as §1

[5] = tested on: pooled sera of chronic Chagas disease patients, USA
Description: as §1

[6] = tested on: pooled sera of uninfected people, Argentina
Description: as §1

[7] = tested on: pooled sera of uninfected people, Bolivia
Description: as §1

[8] = tested on: pooled sera of uninfected people, Brazil
Description: as §1

[9] = tested on: pooled sera of uninfected people, Colombia
Description: as §1

[10] = tested on: pooled sera of uninfected people, Mexico
Description: as §1

[11] = tested on: pooled sera of uninfected people, USA
Description: as §1

Sequence	antibody binding signal [1]	antibody binding signal [2]	antibody binding signal [3]	antibody binding signal [4]	antibody binding signal [5]	antibody binding signal [6]	antibody binding signal [7]	antibody binding signal [8]	antibody binding signal [9]	antibody binding signal [10]	antibody binding signal [11]
SGTDKKPAAGETPSP	4910	26900	10200	924	2750	131	258	168	470	2850	447
GTDKKPATGETPSPS	24700	29500	6610	586	20500	153	419	257	252	2110	1800
SGKDKKTATGGTPSP	400	354	1150	542	1680	175	77	118	195	73	103
GTDNKAAAGGTPSQP	763	23500	2740	273	993	294	726	2970	292	716	96.8
SGTEKKAATGGAPSQ	266	2490	831	2290	2170	493	1220	126	1360	233	202
SGTEKKAATGGTPSP	594	1660	1270	1610	2130	309	543	994	1720	163	201
SGTDNKAAAGGAPSQ	511	46600	4520	637	275	181	772	1760	279	189	328
PPSGTDNKPATGETP	39600	46100	5310	4950	24500	722	532	481	381	2000	356
TPPSGKDKKPAAGET	2110	5600	408	53400	790	452	601	103	265	145	128
SGTDNKAATGEAPSQ	40300	43400	190	283	30300	209	618	1010	120	125	155
GKENKPATGGAPSQS	1200	16100	7700	8300	19000	773	685	136	125	140	146
GTDNKPATGEAPSQP	41100	45500	1400	245	36500	779	935	437	152	347	142
GTENKTAAGGAPSPS	481	566	5770	1030	620	444	436	390	302	432	201
GKEKKTATGGAPSPP	216	459	4150	2850	2390	206	113	111	62.2	100	118
SGTEKKPAAGEAPSP	1010	11700	897	912	14800	92.9	678	424	104	248	513
TPPSGTENKAAAGET	40400	44100	178	2390	17800	2120	440	254	531	477	373
GKEKKAAAGGAPSPS	180	240	3100	1810	1410	125	87.2	102	132	104	97.6
KKPAAGGAPSPPGAS	194	379	1450	251	557	321	249	107	124	79	346
EKKTAAGGAPSQPGA	674	1260	7070	605	689	206	791	163	264	242	689
GTDKKPAAGGTPSQS	255	913	7290	485	1110	327	260	2010	185	261	215
PSGTDNKPATGETPS	38600	47500	2030	328	27300	353	661	653	347	2000	212
GTDNKPAAGGAPSPS	549	43600	2300	281	742	259	605	563	273	552	149
ENKTATGGAPSPSGA	1960	950	542	400	1200	399	180	669	183	282	200
TPPSGKDKKAATGEA	347	1040	289	41800	1160	246	421	111	301	111	100

Sequence	antibody binding signal [1]	antibody binding signal [2]	antibody binding signal [3]	antibody binding signal [4]	antibody binding signal [5]	antibody binding signal [6]	antibody binding signal [7]	antibody binding signal [8]	antibody binding signal [9]	antibody binding signal [10]	antibody binding signal [11]
GKEKKAAAGETPSQP	350	18100	4080	5950	5790	198	103	99.5	135	74.7	126
KKAATGEAPSPPGAS	21500	21600	202	133	15500	441	340	107	303	85.8	414
GTENKTATGGAPSPP	1060	763	703	1110	1140	274	315	236	220	443	172
GTENKTAAGGAPSPP	730	600	5610	1690	1240	399	380	389	279	389	179
KKAATGGAPSQPGAS	276	1680	427	409	350	364	163	97.2	238	79.1	348
GKENKPATGETPSPP	27500	36500	11700	12900	27600	752	562	236	161	1630	626
GTENKAATGEAPSPP	40700	38200	2050	2810	28700	156	306	131	152	102	93.5
SGKDKKAATGETPSP	309	5810	571	573	8500	366	110	94.7	315	79.4	383
GTENKPAAGGAPSQP	7980	22400	1570	1960	2970	467	1720	727	345	304	185
TSSTPPSGKENKTAT	5670	10600	1420	4910	2880	2050	1230	131	581	334	324
STPPSGTDKKPATGG	9800	45000	13500	42000	17100	1510	1100	326	326	3560	868
TPPSGTDNKAAAGGT	42300	51400	2850	16600	8120	690	616	2980	231	365	212
GTENKAAAGETPSPP	492	10300	988	1330	3190	152	392	103	149	198	474
SGTENKPAAGETPSP	20200	35300	483	836	10100	1020	1350	211	139	256	415
KKTATGETPSPPGAS	267	707	165	190	3480	398	375	99.6	152	76.4	543
SSTPPSGTDNKPAAG	50400	52900	7100	30100	35400	1520	744	616	396	1620	466
PSGKDNKTATGETPS	1430	3220	2770	1490	6860	358	422	318	298	140	185
GTDNKAATGGAPSQP	2830	33900	576	560	1380	294	630	1540	215	227	118
PSGKEKKTAAGGTPS	590	5400	10600	8260	6480	242	211	302	174	208	128
STPPSGKDKKPAAGG	2370	13200	416	52400	4270	583	374	144	171	149	278
TISTPPSGKEKKTAT	247	242	373	15700	652	343	502	112	184	120	150
GKDNKAAAGGTPSPP	215	238	1220	774	1300	156	254	345	167	80.2	72.4
STPPSGTDNKAATGG	39200	44800	2680	31000	27200	1060	775	1460	219	301	250
GTEKKPAAGEAPSQS	6200	15400	1460	2610	15500	145	1110	2250	98.8	428	1020

Sequence	antibody binding signal [1]	antibody binding signal [2]	antibody binding signal [3]	antibody binding signal [4]	antibody binding signal [5]	antibody binding signal [6]	antibody binding signal [7]	antibody binding signal [8]	antibody binding signal [9]	antibody binding signal [10]	antibody binding signal [11]
DNKPATGEAPSPSGA	48200	48600	275	172	41800	935	504	639	141	212	122
SGKDNKPAAGETPSQ	663	21800	1330	987	2650	704	842	195	678	408	98.6
SGTEKKPATGETPSQ	27400	30900	351	310	21400	268	710	525	162	1710	296
SGTDNKTATGETPSP	2500	42200	296	167	7180	131	576	1010	137	180	696
PPSGKDNKAATGGAP	299	2400	550	2280	2350	521	426	126	239	91.6	239
PPSGTDKKPATGEAP	46000	46600	9280	23200	39900	1210	875	616	580	4430	395
STPPSGKEKKAAAGE	867	845	893	17600	1200	530	625	98.7	440	90.3	170
GTENKTATGGTPSQS	1960	1780	4000	3280	2480	481	456	377	215	970	164
PSGTENKTAAGGTPS	21800	44600	10200	5720	11100	1280	640	1190	526	3040	601
GTENKAATGETPSPP	12600	24200	1670	1850	14400	145	340	125	201	132	955
GTEKKTATGGTPSPP	523	1080	5540	1760	3190	303	734	456	908	134	147
SGKDKKPATGEAPSQ	16200	43700	417	653	31900	789	307	156	729	82.6	133
PPSGKDKKPATGEAP	18400	42500	981	23100	29100	1030	713	166	281	116	167
ENKPATGGTPSQSGA	3800	3670	398	926	665	470	906	759	246	340	300
TENKAAAGGAPSPSG	509	1200	3880	461	712	299	160	219	301	146	433
TISTPPSGTDKKPAA	8240	44600	13500	49800	9640	2310	303	367	331	2950	693
SGKENKTAAGETPSP	3840	16100	5520	4450	17200	6850	2570	197	458	693	585
ENKTAAGGTPSQSGA	1510	593	6200	512	1560	426	250	1650	197	2500	233
DKKAATGEAPSPPGA	17000	30400	287	561	24000	681	104	161	680	137	219
KEKKAATGETPSQPG	502	28200	199	198	7190	258	113	115	222	95.6	149
PPSGTEKKAATGGAP	898	13800	882	3170	3600	1520	894	146	784	135	341
PPSGTEKKPAAGGTP	5550	35500	4330	8020	6830	1340	1060	2410	367	352	873
ENKAATGGTPSPPGA	2560	378	532	388	284	210	141	400	355	120	142
